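The compound was tested at five concentrations on cells cultured in 96-well plates, with a 48-hour exposure period. GI50 = concentration required for 50% inhibition of growth.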 Activity calls are given as the source filed them. Cut-off read from the data, not from the text of the source: active = GI50 up to about 1.1 µM and inactive = higher.

The subject of this assay is NCI-H322M. Put plainly: NCI tumour cell line growth inhibition, 48 h.
On to `COc1cccc(Nc2n[nH]c(NS(=O)(=O)c3cc(C)c(Cl)cc3S)n2)c1`, for which the GI50 was inactive: > 100 µM.

Turning to `COc1ccc(-n2cnc3c(N)nc(N)nc32)cc1`, the GI50 was inactive: > 100 µM.

For `C=C(C=O)c1c2c(nc3ccccc13)C(=O)c1ccccc1C2=O`, the GI50 is inactive: 1.52 µM.

Regarding `CCSC1=C(C)N(/C=N/C(C)(C)C)CC1`, the GI50 was inactive: > 100 µM.

Consider `C[C@@H]1CCC[C@]2(C)O[C@H]2CC[C@@](C)(O)[C@@H]2CC3=C(CO)C(=O)O[C@H]3[C@H]1O2`, for which the GI50 was inactive: > 50 µM.

Regarding `CN(N=O)C(=N)NC(=O)c1ccccc1`, the GI50 was inactive: > 100 µM.

As for `COc1ccc(/C=C/c2nnc(S)[nH]2)cc1`, the GI50 was inactive: > 100 µM.

On to `CCCCCCSC[C@H](OC(C)=O)[C@@H](OC(C)=O)[C@@H](OC(C)=O)[C@@H](COC(C)=O)OC(C)=O`, for which the GI50 was inactive: > 100 µM.

As to `COC(=O)CCC(=O)NC1c2cccc3cccc(c23)Cn2c(=O)n(C)c(=O)n21` (configuration not stated), the GI50 was inactive: > 100 µM.

For the molecule `CCOC(=O)C1C(=O)C(C(=O)OCC)C(c2ccccc2)N(C)C1c1ccccc1` (configuration not stated), the GI50 is inactive: > 100 µM.

`CC[C@@]1(OC(=O)C(N)CCC(=O)O)C(=O)OCc2c1cc1n(c2=O)Cc2cc3ccccc3nc2-1` (some centres not stated): the GI50 was active: 0.404 µM.

On to `Cc1cn(C2C=CC(COP(=O)(OCc3ccc([N+](=O)[O-])o3)N(C)CCCCCl)O2)c(=O)[nH]c1=O` (configuration not stated), for which the GI50 was inactive: 13.4 µM.

`CC1(C)[C@@H]2C[C@H]1c1cnc(-c3ccccn3)cc1[C@H]2C(O)[C@@H]1c2cc(-c3ccccn3)ncc2[C@H]2C[C@@H]1C2(C)C` (some centres not stated): the GI50 is active: 0.0479 µM.

In the case of `COc1cc2ccc1OCc1cccc(n1)COc1ccc(cc1OC)/C=N\CCNCCNCC/N=C\2`, the GI50 is inactive: > 100 µM.

Regarding `O=[N+]([O-])c1ccc2occ3c2c1CCC3`, the GI50 was inactive: > 100 µM.

On to `CN(C)CCNC1=Nc2ccccc2C(=O)N2CSCC12` (configuration not stated), for which the GI50 was inactive: > 100 µM.

For `C=C1C(=O)O[C@@H]2/C=C(\C)CC/C=C(/COC(C)=O)C[C@@H](OC(C)=O)[C@@H]12`, the GI50 was inactive: 39.8 µM.

Consider `COc1cc(/C=C/C(=O)c2cccc3ccccc23)cc(OC)c1OC`, for which the GI50 was inactive: 13.5 µM.

For `C=C1C(C)C2C(Cc3ccccc3)NC(=O)C23C(OC(C)=O)/C=C/C(C)(O)CC(C)C/C=C/C3C1O` (configuration not stated), the GI50 is inactive: 53.5 µM.

Regarding `COc1ccc(OC)c2c(=O)cc(-c3ccccc3)[nH]c12`, the GI50 is inactive: > 100 µM.

As for `CCOC(=O)C1=c2[nH]c3cccc4cccc(c43)n2C(=O)CC1c1ccccc1` (configuration not stated), the GI50 is inactive: > 100 µM.

For the molecule `O=C1N[C@H](Cc2c[nH]cn2)C(=O)N2CCC[C@@H]12`, the GI50 is inactive: > 100 µM.

With `COC(=O)C1=C(C=O)C2C=CC1C2` (configuration not stated), the GI50 was inactive: > 100 µM.

Take `COc1cc(Cc2cc3c(c(C(=O)O)c2Br)OCO3)cc(OC)c1OC`: the GI50 is inactive: > 100 µM.

As to `CC(=O)Oc1c(C)c2c(c3ncccc13)OC(C)C2` (configuration not stated), the GI50 is inactive: 16.4 µM.

Turning to `COC(=O)Cc1cccc2c1CCC2=O`, the GI50 was inactive: > 100 µM.

`CCCCOC(=O)NC(=O)c1cn(CCCOC(=O)NCCCCCCNC(=O)OCCCn2cc(C(=O)NC(=O)OCCCC)c(=O)[nH]c2=O)c(=O)[nH]c1=O`: the GI50 was inactive: > 100 µM.

As for `COCN1C(N)=C(C(=O)OC(C)(C)C)C2=CC(=O)C=CC21C` (configuration not stated), the GI50 was inactive: 15 µM.

On to `Nc1ncn(C2OC(COP(=O)(O)O)C(O)C2O)c(=O)n1` (configuration not stated), for which the GI50 is inactive: > 94 µM.

For `CN1CCN(c2nc(N)c(Br)c(Cl)n2)CC1`, the GI50 is inactive: > 100 µM.

With `Nc1ccc(-c2nc3ccccc3s2)cc1C(F)(F)F`, the GI50 is inactive: 15.5 µM.

Consider `COc1cc(-c2oc3c(OC)c(O)c(OC)c(O)c3c(=O)c2OC)cc(O)c1OC`, for which the GI50 is inactive: 42.7 µM.

The values above are taken from ChEMBL document CHEMBL1201862, “PubChem BioAssay data set” (2004).
